These are yes or no findings as the source states them, for the method shown. Binding seen in cells or lysates may run through a third protein. Some entries that bind do so weakly or less than the wild type.
What was measured:
IKKε = molecular target: T1, IKKε (UniProt Q14164); test: co-IP; HEK293 cells transfected with the indicated plasmids; NP-40 lysis buffer (20 mM Tris-HCl pH 7.4, 150 mM NaCl, 1 mM EDTA, 1% Nonidet P-40); immunoprecipitation and immunoblot with the indicated antibodies (Fig 4A, 4C)
T1 sequence: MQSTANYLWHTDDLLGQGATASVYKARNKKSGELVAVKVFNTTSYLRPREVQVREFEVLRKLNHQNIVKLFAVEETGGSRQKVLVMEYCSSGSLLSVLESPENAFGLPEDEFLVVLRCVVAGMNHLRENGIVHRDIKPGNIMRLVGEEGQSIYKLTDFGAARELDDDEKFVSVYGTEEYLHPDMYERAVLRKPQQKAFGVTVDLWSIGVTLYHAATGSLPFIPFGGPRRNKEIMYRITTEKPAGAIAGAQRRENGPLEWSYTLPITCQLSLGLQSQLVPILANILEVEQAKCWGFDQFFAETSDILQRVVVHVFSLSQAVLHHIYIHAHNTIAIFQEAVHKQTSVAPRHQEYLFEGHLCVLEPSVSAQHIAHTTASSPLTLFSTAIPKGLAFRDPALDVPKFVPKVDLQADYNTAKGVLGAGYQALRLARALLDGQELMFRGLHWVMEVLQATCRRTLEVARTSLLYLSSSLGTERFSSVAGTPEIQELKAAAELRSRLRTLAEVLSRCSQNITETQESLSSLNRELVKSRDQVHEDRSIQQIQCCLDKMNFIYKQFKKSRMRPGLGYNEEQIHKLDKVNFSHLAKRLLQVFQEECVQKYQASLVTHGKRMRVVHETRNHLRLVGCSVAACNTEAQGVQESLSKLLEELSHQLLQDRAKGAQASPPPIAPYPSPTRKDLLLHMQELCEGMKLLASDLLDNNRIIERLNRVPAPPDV

Amino acid sequences for entries named in this document (tags omitted).
UniProt Q7Z434: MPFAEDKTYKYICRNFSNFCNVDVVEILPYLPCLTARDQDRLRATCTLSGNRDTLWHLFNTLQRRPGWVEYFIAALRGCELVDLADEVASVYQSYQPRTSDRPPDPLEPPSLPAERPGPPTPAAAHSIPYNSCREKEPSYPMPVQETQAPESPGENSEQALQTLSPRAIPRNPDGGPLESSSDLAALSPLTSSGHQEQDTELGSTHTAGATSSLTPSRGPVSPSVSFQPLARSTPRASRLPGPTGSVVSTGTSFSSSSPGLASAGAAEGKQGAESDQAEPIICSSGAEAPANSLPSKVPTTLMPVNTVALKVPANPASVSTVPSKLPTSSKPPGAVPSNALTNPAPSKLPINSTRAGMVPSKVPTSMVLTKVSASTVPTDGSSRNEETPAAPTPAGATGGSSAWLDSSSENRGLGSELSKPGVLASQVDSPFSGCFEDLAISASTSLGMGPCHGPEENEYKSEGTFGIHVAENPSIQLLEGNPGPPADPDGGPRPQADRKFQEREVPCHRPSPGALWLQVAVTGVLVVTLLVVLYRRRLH
UniProt O14818: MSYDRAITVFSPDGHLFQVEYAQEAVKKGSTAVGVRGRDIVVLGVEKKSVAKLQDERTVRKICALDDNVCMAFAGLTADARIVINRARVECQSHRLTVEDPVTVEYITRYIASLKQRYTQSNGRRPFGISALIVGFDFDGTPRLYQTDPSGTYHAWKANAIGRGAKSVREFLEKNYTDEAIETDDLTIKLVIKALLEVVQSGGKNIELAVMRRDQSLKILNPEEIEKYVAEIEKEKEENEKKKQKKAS
UniProt Q14258: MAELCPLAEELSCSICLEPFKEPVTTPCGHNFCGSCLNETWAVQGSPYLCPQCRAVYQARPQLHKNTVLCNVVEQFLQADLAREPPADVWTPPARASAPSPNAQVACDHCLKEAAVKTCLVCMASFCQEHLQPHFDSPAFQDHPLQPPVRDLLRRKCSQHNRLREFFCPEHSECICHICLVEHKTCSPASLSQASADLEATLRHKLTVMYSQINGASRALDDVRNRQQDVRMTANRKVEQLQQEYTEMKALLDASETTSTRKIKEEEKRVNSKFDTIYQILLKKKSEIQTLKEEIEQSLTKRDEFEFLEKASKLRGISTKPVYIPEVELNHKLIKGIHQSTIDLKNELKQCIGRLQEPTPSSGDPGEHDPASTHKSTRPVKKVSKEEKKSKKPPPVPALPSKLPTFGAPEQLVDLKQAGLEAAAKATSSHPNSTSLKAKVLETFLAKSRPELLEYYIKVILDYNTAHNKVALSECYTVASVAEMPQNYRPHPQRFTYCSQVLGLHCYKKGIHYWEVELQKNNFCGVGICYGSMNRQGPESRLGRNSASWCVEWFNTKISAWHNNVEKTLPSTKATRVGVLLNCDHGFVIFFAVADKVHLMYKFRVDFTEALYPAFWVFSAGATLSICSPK
UniProt Q96J02: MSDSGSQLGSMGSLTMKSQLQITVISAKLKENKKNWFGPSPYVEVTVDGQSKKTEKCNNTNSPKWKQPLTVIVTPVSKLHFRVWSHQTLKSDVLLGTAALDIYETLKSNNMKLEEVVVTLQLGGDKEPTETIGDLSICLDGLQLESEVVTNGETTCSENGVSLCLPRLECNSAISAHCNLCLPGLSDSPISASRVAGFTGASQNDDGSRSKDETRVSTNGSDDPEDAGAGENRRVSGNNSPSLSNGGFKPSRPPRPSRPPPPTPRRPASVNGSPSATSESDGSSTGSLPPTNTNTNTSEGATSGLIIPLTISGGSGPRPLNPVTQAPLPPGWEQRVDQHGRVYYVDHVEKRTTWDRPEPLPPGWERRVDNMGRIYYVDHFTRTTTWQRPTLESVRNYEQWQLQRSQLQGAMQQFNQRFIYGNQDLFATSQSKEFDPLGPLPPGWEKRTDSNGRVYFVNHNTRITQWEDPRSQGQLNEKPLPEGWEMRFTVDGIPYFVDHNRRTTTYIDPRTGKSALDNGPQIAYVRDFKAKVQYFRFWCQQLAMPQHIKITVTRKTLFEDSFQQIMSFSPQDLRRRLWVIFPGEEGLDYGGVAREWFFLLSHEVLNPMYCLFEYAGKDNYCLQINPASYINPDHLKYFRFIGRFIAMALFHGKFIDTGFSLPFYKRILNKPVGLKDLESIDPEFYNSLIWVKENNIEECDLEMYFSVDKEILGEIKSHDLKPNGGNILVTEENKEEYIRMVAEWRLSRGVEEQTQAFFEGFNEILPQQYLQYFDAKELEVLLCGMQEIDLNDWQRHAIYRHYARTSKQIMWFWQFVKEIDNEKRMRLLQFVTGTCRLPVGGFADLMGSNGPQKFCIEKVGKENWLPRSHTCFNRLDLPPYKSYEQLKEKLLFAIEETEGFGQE
UniProt Q9HCE7: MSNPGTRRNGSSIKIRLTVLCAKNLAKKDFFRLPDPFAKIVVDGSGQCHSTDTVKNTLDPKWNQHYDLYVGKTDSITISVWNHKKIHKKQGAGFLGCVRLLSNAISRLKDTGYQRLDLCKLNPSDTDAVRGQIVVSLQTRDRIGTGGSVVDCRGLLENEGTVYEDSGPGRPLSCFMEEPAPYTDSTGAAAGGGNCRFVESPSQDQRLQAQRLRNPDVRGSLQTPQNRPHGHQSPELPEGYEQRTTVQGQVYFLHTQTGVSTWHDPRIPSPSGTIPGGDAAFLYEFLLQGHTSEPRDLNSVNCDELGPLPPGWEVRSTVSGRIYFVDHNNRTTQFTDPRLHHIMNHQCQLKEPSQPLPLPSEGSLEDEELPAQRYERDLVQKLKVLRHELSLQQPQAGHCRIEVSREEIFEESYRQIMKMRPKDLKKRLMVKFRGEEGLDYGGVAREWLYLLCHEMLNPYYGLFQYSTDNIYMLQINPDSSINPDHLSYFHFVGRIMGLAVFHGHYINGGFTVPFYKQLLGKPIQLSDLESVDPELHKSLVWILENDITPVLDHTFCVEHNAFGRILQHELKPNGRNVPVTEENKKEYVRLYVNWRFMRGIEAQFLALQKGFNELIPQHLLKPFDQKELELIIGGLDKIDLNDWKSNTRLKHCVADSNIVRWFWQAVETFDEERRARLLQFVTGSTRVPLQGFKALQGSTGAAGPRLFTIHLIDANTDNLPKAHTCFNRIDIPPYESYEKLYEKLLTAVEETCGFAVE
UniProt Q86TM6: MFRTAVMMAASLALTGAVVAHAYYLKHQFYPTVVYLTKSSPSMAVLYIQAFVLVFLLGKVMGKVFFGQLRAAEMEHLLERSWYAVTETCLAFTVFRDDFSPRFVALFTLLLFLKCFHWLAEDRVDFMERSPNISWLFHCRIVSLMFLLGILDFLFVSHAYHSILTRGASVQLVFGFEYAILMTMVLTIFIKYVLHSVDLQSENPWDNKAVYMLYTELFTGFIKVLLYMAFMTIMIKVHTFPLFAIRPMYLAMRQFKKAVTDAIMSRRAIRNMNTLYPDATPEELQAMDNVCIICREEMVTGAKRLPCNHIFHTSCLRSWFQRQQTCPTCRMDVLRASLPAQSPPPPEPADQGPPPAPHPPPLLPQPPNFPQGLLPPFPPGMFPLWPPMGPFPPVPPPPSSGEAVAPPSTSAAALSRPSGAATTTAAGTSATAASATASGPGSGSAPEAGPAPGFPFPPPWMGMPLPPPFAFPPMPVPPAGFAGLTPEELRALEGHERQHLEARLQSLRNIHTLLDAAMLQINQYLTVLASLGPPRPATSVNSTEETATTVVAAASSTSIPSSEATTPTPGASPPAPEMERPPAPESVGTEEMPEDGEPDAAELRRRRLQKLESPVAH
UniProt Q9UKV5: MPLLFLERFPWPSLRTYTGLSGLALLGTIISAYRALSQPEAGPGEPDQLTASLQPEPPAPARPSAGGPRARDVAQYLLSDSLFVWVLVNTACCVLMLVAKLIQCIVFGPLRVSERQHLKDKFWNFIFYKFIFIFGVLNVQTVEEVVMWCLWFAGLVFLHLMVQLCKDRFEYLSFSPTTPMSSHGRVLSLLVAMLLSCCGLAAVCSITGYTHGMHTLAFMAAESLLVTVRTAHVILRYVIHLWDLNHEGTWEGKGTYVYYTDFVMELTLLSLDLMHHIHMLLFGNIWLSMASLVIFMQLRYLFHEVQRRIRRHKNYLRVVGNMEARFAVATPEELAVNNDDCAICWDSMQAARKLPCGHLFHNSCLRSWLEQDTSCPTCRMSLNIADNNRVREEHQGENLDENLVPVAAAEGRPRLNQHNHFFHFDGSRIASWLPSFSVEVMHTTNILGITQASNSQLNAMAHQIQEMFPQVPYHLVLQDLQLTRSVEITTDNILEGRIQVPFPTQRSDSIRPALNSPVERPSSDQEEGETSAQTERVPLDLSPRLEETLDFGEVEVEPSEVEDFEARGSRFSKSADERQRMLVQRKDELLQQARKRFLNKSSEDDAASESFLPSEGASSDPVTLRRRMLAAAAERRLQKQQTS

TBK1 = molecular target: T2, TBK1 (UniProt Q9UHD2); test: as above
T2 sequence: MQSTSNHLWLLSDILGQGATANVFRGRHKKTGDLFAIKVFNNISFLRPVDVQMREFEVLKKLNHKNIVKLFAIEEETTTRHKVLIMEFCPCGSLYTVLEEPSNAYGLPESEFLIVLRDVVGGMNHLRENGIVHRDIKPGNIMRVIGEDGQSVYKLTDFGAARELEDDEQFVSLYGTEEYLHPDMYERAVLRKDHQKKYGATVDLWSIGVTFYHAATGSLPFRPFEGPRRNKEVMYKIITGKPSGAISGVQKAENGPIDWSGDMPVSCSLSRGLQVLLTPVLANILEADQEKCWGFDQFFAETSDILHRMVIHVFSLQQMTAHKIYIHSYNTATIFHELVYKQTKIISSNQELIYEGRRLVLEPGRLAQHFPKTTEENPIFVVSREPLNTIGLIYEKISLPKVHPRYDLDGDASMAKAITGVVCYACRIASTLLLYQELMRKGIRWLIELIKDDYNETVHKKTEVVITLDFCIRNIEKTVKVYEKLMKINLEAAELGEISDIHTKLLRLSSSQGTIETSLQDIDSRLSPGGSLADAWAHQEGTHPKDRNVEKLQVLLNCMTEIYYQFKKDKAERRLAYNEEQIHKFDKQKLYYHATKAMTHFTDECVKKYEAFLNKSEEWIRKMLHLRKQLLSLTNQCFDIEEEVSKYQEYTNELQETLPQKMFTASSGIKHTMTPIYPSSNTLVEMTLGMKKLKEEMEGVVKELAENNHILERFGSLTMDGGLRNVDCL

[1] = molecular target: VISA (endogenous) (human (endogenous in HEK293 and HEK293T)) (UniProt Q7Z434); test: co-IP; called endogenous co-IP in the text; HEK293 cells transfected with iRhom2 plasmids, un-infected or infected with SeV for the indicated times; NP-40 lysis buffer (Fig 4B)
PSMA7 = PSMA7 (UniProt O14818); test: co-IP
TRIM25 = TRIM25 (UniProt Q14258); test: co-IP
AIP4 = AIP4 (UniProt Q96J02); test: co-IP
Smurf1 = Smurf1 (UniProt Q9HCE7); test: co-IP
HRD1 = HRD1 (UniProt Q86TM6); test: co-IP
GP78 = GP78 (UniProt Q9UKV5); test: co-IP
VCP = VCP (UniProt P55072); test: co-IP

B1: inactive rhomboid protein 2 (iRhom2) (protein, UniProt Q6PJF5 1-856)
chain: MASADKNGGSVSSVSSSRLQSRKPPNLSITIPPPEKETQAPGEQDSMLPEGFQNRRLKKSQPRTWAAHTTACPPSFLPKRKNPAYLKSVSLQEPRSRWQESSEKRPGFRRQASLSQSIRKGAAQWFGVSGDWEGQRQQWQRRSLHHCSMRYGRLKASCQRDLELPSQEAPSFQGTESPKPCKMPKIVDPLARGRAFRHPEEMDRPHAPHPPLTPGVLSLTSFTSVRSGYSHLPRRKRMSVAHMSLQAAAALLKGRSVLDATGQRCRVVKRSFAFPSFLEEDVVDGADTFDSSFFSKEEMSSMPDDVFESPPLSASYFRGIPHSASPVSPDGVQIPLKEYGRAPVPGPRRGKRIASKVKHFAFDRKKRHYGLGVVGNWLNRSYRRSISSTVQRQLESFDSHRPYFTYWLTFVHVIITLLVICTYGIAPVGFAQHVTTQLVLRNKGVYESVKYIQQENFWVGPSSIDLIHLGAKFSPCIRKDGQIEQLVLRERDLERDSGCCVQNDHSGCIQTQRKDCSETLATFVKWQDDTGPPMDKSDLGQKRTSGAVCHQDPRTCEEPASSGAHIWPDDITKWPICTEQARSNHTGFLHMDCEIKGRPCCIGTKGSCEITTREYCEFMHGYFHEEATLCSQVHCLDKVCGLLPFLNPEVPDQFYRLWLSLFLHAGVVHCLVSVVFQMTILRDLEKLAGWHRIAIIFILSGITGNLASAIFLPYRAEVGPAGSQFGLLACLFVELFQSWPLLERPWKAFLNLSAIVLFLFICGLLPWIDNIAHIFGFLSGLLLAFAFLPYITFGTSDKYRKRALILVSLLAFAGLFAALVLWLYIYPINWPWIEHLTCFPFTSRFCEKYELDQVLH
binding (IKKε): no binding | binding (TBK1): no binding | binding [1]: binds | binding (PSMA7): binds | binding (TRIM25): no binding | binding (AIP4): binds | binding (Smurf1): binds | binding (HRD1): no binding | binding (GP78): binds | binding (VCP): binds

Reference: paper PMC5722342
